About 540 (0.36%) of roughly 150,000 compounds showed an effect of 50% or more. The list shows a part of the results.

The test system of the experiment is Plasmodium falciparum. Put plainly: Primary screen in NF54 nanoGlo assay, in single point, at 2uM, 72h; a lower Z score goes with more inhibition. The experiment is classed as functional, Erythrocyte. Conditions: timepoint 72 hour.
The % Inhibition is the drop in the measured response relative to a control, in per cent. Take `Cc1nccc(NC(=O)c2ccn(C(C)C)n2)n1`: the “% Inhibition” value was -5% and the Z score turned out to be 0.75.
For `O=c1[nH]c2ccc(-c3csc(NC4CCCC4)n3)cc2[nH]1` the same measures were 3% and -0.28.
For `O=C(Nc1ccc(Cl)cn1)C1C(c2ccccc2)C1(Cl)Cl` (stereo not drawn) the same measures were -6% and 0.82.
Take `C[C@@H](c1n[nH]c(=O)n1Cc1ccc(Cl)cc1Cl)n1cccn1`: the “% Inhibition” value was -4% and the Z score was found to be 0.49.
For `NC(=O)[C@H]1CCN(Cc2csc(-c3ccsc3)n2)C1` the same measures were -2% and 0.27.
For `Cc1ccc(NC(=O)c2ccn(C(=O)Nc3ccccc3)n2)c(C)c1` the same measures were -10% and 1.35.
For `Cc1cc(F)ccc1NC(=O)[C@H](C)NC(=O)COc1cccnc1` the same measures were -1% and 0.15.
For the compound `COc1cccc(CN2CCC3OCC(=O)NC3C2)c1F` (stereo not drawn), the “% Inhibition” value worked out at 0% and the Z score is 0.
For `c1csc([C@@H]2CCCN2Cc2cscn2)n1` the same measures were 2% and -0.31.
For `CCN(CCC(F)(F)F)C(=O)c1cc(C)cc(C)c1` the same measures were -10% and 1.23.
For `Cc1ncc(CN2CCCN(C(=O)OCC(C)C)CC2)c(C)n1` the same measures were 1% and -0.08.
Turning to `CCCNC(=O)Cn1c(C)ncc(-c2nc(-c3ccccc3)cs2)c1=O`, the “% Inhibition” value is recorded as -10% and the Z score is 1.61.
For `O=C(Nc1ccc(-c2cc3ccccc3[nH]2)cc1)C1CCN(C2CCC2)CC1` the same measures were -14% and 1.62.
In the case of `Cc1ccc(C)n1CC(=O)N1CCC[C@H]1c1nc2ccccc2n1C`, the “% Inhibition” value is recorded as -10% and the Z score is 1.29.
For `Cc1c(-c2cc(C(=O)NCc3cnc4c(c3)CCC4)n[nH]2)cnn1C` the same measures were -10% and 1.23.
Regarding `CCCN(CC(=O)N(CCc1ccccc1)Cc1ccco1)S(C)(=O)=O`, the “% Inhibition” value is -12% and the Z score was 1.42.
For `CC1(C)CC(=O)NCCN1CCOc1cccc(S(C)(=O)=O)c1` the same measures were -5% and 0.66.
For `Cn1c(C(=O)N2CCOC3CCCC32)cc(Cl)c1Cl` (stereo not drawn) the same measures were 4% and -0.81.
On to `Cc1ccc([C@@H]2Cn3cnc(C(=O)N4CCC(C(=O)NCC(F)F)CC4)c3CO2)cc1`, for which the “% Inhibition” value is -12% and the Z score was 1.37.
As to `CCc1nc(O)c(C(=O)N(C)CCn2cccn2)cc1C`, the “% Inhibition” value is -9% and the Z score came to 1.03.
For `CCc1nc(C)nc(N2CCCN(C(=O)c3cc(C(F)(F)F)cc(C(F)(F)F)c3)CC2)c1Cc1ccccc1` the same measures were 3% and -0.46.
For `CCOC(=O)c1ccc(NC(=O)N(CC)[C@H]2CCOC(C)(C)C2)cc1` the same measures were 11% and -1.51.
For `CC(=O)c1cccc(NC(=O)CN2CCN(c3ccc(F)c(F)c3)C2=O)c1` the same measures were 24% and -2.76.
As for `CC(=O)N[C@@H](C)c1ccc(S(=O)(=O)OCC(F)(F)C(F)F)s1`, the “% Inhibition” value is given as -9% and the Z score is 0.95.
For `O[C@@H](CN(Cc1ccncc1Cl)C1CC1)c1ccccc1` the same measures were 0% and -0.03.
For `CCC[C@@]1(C)C(=O)NCCN1C(=O)CC#N` the same measures were -2% and 0.41.
On to `O=C(Cn1c(=O)c2cc(C3CC3)nn2c2ncccc21)NCc1ccc(Cl)cc1`, for which the “% Inhibition” value is given as 10% and the Z score is reported as -1.77.
For `O=S(=O)(Cc1cccc(F)c1)N1CCC[C@H](c2nnc(C(F)(F)F)o2)C1` the same measures were 10% and -1.16.
In the case of `Cc1ccc(NC(=O)Cn2c(C)nc3c(-c4ccncc4)nsc3c2=O)c(Cl)c1`, the “% Inhibition” value was -10% and the Z score came to 1.61.
For `CN(C)CCNc1nc2c(c(=O)[nH]1)Cc1ccccc1OC2` the same measures were -4% and 0.72.
For `CCn1nccc1C(=O)NC(C)(C)c1nc2c(c(C(N)=O)n1)OCO2` the same measures were -6% and 0.75.
For `N#Cc1cc2ccccc2nc1OCC(F)F` the same measures were -10% and 1.95.
`O=C(COC(=O)C1CCCC1)Nc1cc(C2CC2)nn1-c1ccccc1`: the “% Inhibition” value was -8% and the Z score is 1.46.
For `COc1ccc(-c2cnn3c(C)cc(C)nc23)cc1S(=O)(=O)NC1CCCC1` the same measures were -11% and 1.07.
For `Cc1ccc(CCCNC(=O)[C@H](C)NS(=O)(=O)c2c(C)noc2C)c(C)c1` the same measures were 0% and 0.03.
For `COc1cc(NC(=O)C2CCN(c3c(C(=O)N4CCC(C)CC4)cnc4snc(C)c34)CC2)cc(OC)c1` the same measures were 20% and -3.5.
Consider `c1csc(-c2n[nH]cc2CNCc2nnc3n2CCOCC3)c1`, for which the “% Inhibition” value is 2% and the Z score was -0.31.
For `CCOc1ccc(CN2C(=O)CCC2(C)C(=O)NC2CCCC(C)C2C)cc1OC` (stereo not drawn) the same measures were -19% and 3.02.
For `O=C(CCN1C(=O)C[C@@H](c2cccs2)NC1=O)N1CCCCCC1` the same measures were -18% and 2.74.
For `Cc1cc(N2CCn3c(nc4cc(Cl)ccc43)C2)ccc1NC(=O)CCc1ccccc1` the same measures were -7% and 1.01.
For `Cc1noc(C)c1C(=O)N1CCCCO1`, the “% Inhibition” value was -2% and the Z score is reported as 0.21.
On to `CCCC(=O)Nc1c(C)cc(C)cc1C`, for which the “% Inhibition” value is -7% and the Z score stood at 1.09.
In the case of `COc1ccccc1N1C(=O)CN(S(=O)(=O)c2ccccc2)C[C@@]1(C)C(=O)NC1CCCC1`, the “% Inhibition” value is recorded as -17% and the Z score turned out to be 2.09.
For `COc1ccc(Cl)cc1S(=O)(=O)N1CCC2(CC1)c1nccn1CCN2C` the same measures were -12% and 1.6.
For `CCCCN(CCO)C(=O)Nc1ccc(Br)cc1C` the same measures were 6% and -0.66.
For `CC(C)(C)CN1C[C@]23C=C[C@H](O2)C(C(=O)N2CCNC(=O)CC2)C3C1=O` (stereo partly drawn) the same measures were 5% and -0.83.
Turning to `Cc1nc[nH]c1-c1c(-c2ccccc2)ncn1Cc1cc(CC(C)C)on1`, the “% Inhibition” value is recorded as 3% and the Z score is recorded as -0.34.
For `Cn1cc(CCNC(=O)C2(O)CCC2)c2ccc(Cl)cc21` the same measures were -9% and 1.43.
For the compound `CC1CC(C)CN(C(=O)CNCCn2cccn2)C1` (stereo not drawn), the “% Inhibition” value is listed as -13% and the Z score is on record as 1.85.
For `O=C(Nc1ncc(Cc2ccccc2)s1)[C@@H]1CC=CCC1` the same measures were -4% and 0.59.
Regarding `C[C@@H](CC(N)=O)N(C)S(=O)(=O)c1cc(Cl)c(Cl)s1`, the “% Inhibition” value was -10% and the Z score is on record as 1.44.
For `Cc1ccccc1C1=NO[C@@H](CN(Cc2ccc(F)cc2)C(=O)CC(C)C)C1` the same measures were -8% and 0.83.
Regarding `Cc1nc2cc(NC(=O)c3nonc3C)ccc2o1`, the “% Inhibition” value came to 0% and the Z score is 0.03.
For the compound `CCc1nn(C)c(Cl)c1CN1CCC2(CC1)CN(CCC(C)C)C(=O)O2`, the “% Inhibition” value is -12% and the Z score was found to be 2.43.

Source of the values: ChEMBL document CHEMBL4888484, “Replenishing the malaria drug discovery pipeline: Screening and hit evaluation of the MMV Hit Generation Library 1 (HGL1) against asexual blood stage Plasmodium falciparum ,using a nano luciferase reporter read-out” (2022).
